± gives the standard deviation of the averaged measurements. The list shows a part of the results.
Tested on: PfAP2-LT AP2 domain (GST-tagged)
Test: gcPBM binding intensity (ln(normalized median fluorescence intensity)); higher = stronger DNA binding
In short: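 In this array assay, P. falciparum DNA-binding domains with a GST tag, expressed in E. coli, were applied for 1 h to primer-extended double-stranded 36-bp intergenic genomic probes and negative controls on an Agilent 4 × 180k array. Bound protein was visualised with Alexa488 anti-GST antibody at 488 nm. Binding intensity is the highest Masliner-normalised natural-log median intensity across replicate spots of either probe orientation.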

| Sequence | gcPBM binding intensity (ln) |
| --- | --- |
| TATATATAAATATGCTGTACGTTTTAATACGTTAAG [XGTACX_site2378] | 8.53 ± 0.38 |
| TAATTATATTCACTTGCTATATAAATTATATATATT [CACACA_negctrl_site526] | 8.59 ± 0.45 |
| CTCAAAGGAATATTCACACATAAATTATAGACTACA [CACACA_site6050] | 8.8 ± 0.45 |
| ATACACACTCAAAAAAGTACTTAACTACATGAATTG [XGTACX_site6366] | 8.89 ± 0.52 |
| AAGAAAAAAATATATGTTTATTTACTTTAATAATTT [TGCATGCA_negctrl_site168] | 8.27 ± 0.49 |
| GTATATATATATATATGCAAATGTATAAATCTACAT [CACACA_negctrl_site546] | 9.32 ± 0.2 |
| AAAAAAAGTTATATTACACACTTTATTCGTTAACTT [CACACA_site3013] | 8.82 ± 0.41 |
| ACAACAATATTTGAATGTACTCTATTTTCGTTGTTC [XGTACX_site593] | 8.96 ± 0.51 |
| ATATTTATGAAGTTCACACATATATATATATATATA [CACACA_site5954] | 9.72 ± 0.45 |
| GATAAATTAAAACACACACACATATATATATATATA [CACACA_site3962] | 9.99 ± 0.042 |
| TTATAATAAAATGAATATATATAATTTAAAATATTT [CACACA_negctrl_site1651] | 8.27 ± 0.54 |
| AAAAAAATAGTCTTCTTGCACTTTTTAATTTATTTT | 8.51 ± 0.51 |
| AATCACCAAATATGTACACACCTTAACATGTTTATA [CACACA_site5180] | 9.14 ± 0.38 |
| ATTATTCATTTATGTAGTACATTTTAATACATTTAA [XGTACX_site3599] | 8.68 ± 0.39 |
| AAAAAAAAAAAAGTTACACACAAATAAAATATTTGG [CACACA_site694] | 8.82 ± 0.55 |
| AAGAAAAATTTAAACTGTACTTGTTTTCCAATGAAC [XGTACX_site4443] | 8.44 ± 0.4 |
| ATAAAAAAAAATAAATGTACAAATTAACAAAATAAT [XGTACX_site5048] | 8.96 ± 0.52 |
| TAATATTTACATATTACACACACGTATTATTAAATA [CACACA_site6340] | 8.98 ± 0.38 |
| TATTTTTTAAAAATGGGTACACATAAATAAATAAAT [XGTACX_site7643] | 8.58 ± 0.45 |
| ATCTAAACAAATAATACACACAATAAAATAGGAAGA [CACACA_site4072] | 9.24 ± 0.41 |
| TGTGAATAAATAAGCACACATAAACCCATATATAAA [CACACA_site4103] | 9.16 ± 0.36 |
| TTCAAAATAAAAAATTCACACACATATATATATATA [CACACA_site8653] | 9.44 ± 0.17 |

| Sequence | gcPBM binding intensity (ln) |
| --- | --- |
| TAATAATAGAGACACACACACATAGACATATAAATA [CACACA_site6729] | 9.89 ± 0.4 |
| TTATAATCAATGAATACACACATATATTTCATTAAT [CACACA_site5909] | 8.8 ± 0.42 |
| ATCTATGAAAAAGGTACATGCAATAAAGAAACATAT [TGCATGCA_site805] | 9.04 ± 0.36 |
| TTATACTATTTTTATACATGCATTTCTATATATTTT [TGCATGCA_site316] | 8.96 ± 0.56 |
| AAATAAAACAATTAACGTACAAGCATATATATATAT [XGTACX_site8508] | 9.63 ± 0.33 |
| ATTTATTAAATTTATAGTACTCAAAGATTTTTATTT [XGTACX_site6661] | 8.46 ± 0.53 |
| TATATATATATTATATGTACACAAGGAAATATGCAT [XGTACX_site5637] | 8.89 ± 0.32 |
| TATGTATAATTATTTTGTACTTATTAAATTTTTTTT [XGTACX_site5413] | 8.46 ± 0.4 |
| AAATAAAAAAAAATAGCACACATAAATATATTATAT [CACACA_site8155] | 8.89 ± 0.46 |
| GAGTAAATAAATAAATGTACATATATATATATTATC [XGTACX_site8466] | 8.99 ± 0.42 |
| AATATATATATATATATATATTTTTGTTAGAATATG [XGTACX_negctrl_site58] | 8.95 ± 0.32 |
| ATACATAAATATTGATGTACTCATTTAATATATTAT [XGTACX_site3992] | 8.77 ± 0.38 |
| TATAATAAATATTAACGTACTCATATATATATATAT [XGTACX_site3871] | 9.26 ± 0.099 |
| GCAAGGAAATAATTGATAATATATATATATATATAT [GTGCAC_negctrl_site400] | 9.35 ± 0.23 |
| ATATAAGCGTATACATGTACATATATATCTTTGTAA [XGTACX_site2742] | 8.93 ± 0.3 |
| TATGTAAATCTCTTAAGAATTCGCTATATCTCTTTT [CACACA_negctrl_site1180] | 8.54 ± 0.45 |
| AGGCTACGAATAGAATGTACCCGAAATAAGGAATAT [XGTACX_site6012] | 8.88 ± 0.5 |
| CTAAAATACGGACACACACACACATATATATATATA [CACACA_site6138] | 10.3 ± 0.11 |
| ATTATCTCCGCCATGTGGACACATATAAGACATTTT [XGTACX_site2889] | 9.01 ± 0.22 |
| ATTGTATATAAATGAGTGCATACTATGTTGTTCTTA [GTGCAC_site9678] | 8.8 ± 0.41 |
| AAAAAAAAAAAAAACACACACACAAAAAAAAATATA [CACACA_site1104] | 9.68 ± 0.35 |
| ATAATTATGAAGCATACATGCATGTCCTGGCTTAAA [TGCATGCA_site491] | 8.86 ± 0.43 |

| Sequence | gcPBM binding intensity (ln) |
| --- | --- |
| AAATTAGAAATACCTACACACTTATCAAAATAAATT [CACACA_site7132] | 8.83 ± 0.35 |
| AAAATATGTAGACACATACACACATATATATATATA [CACACA_site1221] | 9.67 ± 0.42 |
| TTTTTTTTTTCAAATGCATGCAAAAAAAAAAAAATA [TGCATGCA_site945] | 8.14 ± 0.18 |
| TTTTCTTTTTCCAAAAGTACGTAATTTAAACATTTT [XGTACX_site2066] | 8.29 ± 0.51 |
| TATATGTATGTTTGTTTGTTTGTATTTTTTAAGGTA [XGTACX_negctrl_site619] | 8.87 ± 0.48 |
| ATCTAAATTTTTCCATGTACATATACTTTTATGCAT [XGTACX_site2683] | 9.07 ± 0.38 |
| TTATAATATGGATACACACACATATATAAATATATA [CACACA_site5314] | 9.26 ± 0.35 |
| AAAAAATAAATAAATACACACAAATCTATATTTATA [CACACA_site7243] | 8.86 ± 0.46 |
| TAACTATATTTTTACTGTACAAAAAAATTAAATAAT [XGTACX_site1765] | 8.46 ± 0.38 |
| ATATTAATTCTACATTGTACACATGAAAAAATATAA [XGTACX_site8759] | 8.57 ± 0.4 |
| AAAACACAAAAAAAATGTACACATATATATATATAT [XGTACX_site8509] | 9.84 ± 0.12 |
| CTAAGAAAAAATAAAGCACACAAATATTTTAAAAAC [CACACA_site9094] | 8.94 ± 0.38 |
| CATTATGTCGTAAATACACACATACAGATACATACA [CACACA_site4880] | 9.17 ± 0.31 |
| AAATTAAATAAATTTACACACTAAAAATTACAGATA [CACACA_site4722] | 8.66 ± 0.44 |
| GTTATATATAATAATTGTACAAAATTAAATATAACT [XGTACX_site4189] | 8.7 ± 0.47 |
| AAAAAACACCCACATACACACAAAAATGTTATAAAT [CACACA_site81] | 9.53 ± 0.38 |
| TTTTTATTTGGTTGTGTACACATATATATATATATA [CACACA_site5844] | 9.37 ± 0.25 |
| TAGATTATTTTATTTAGTACATAAAAAAGTAAGACC [XGTACX_site7889] | 8.54 ± 0.47 |
| AATAAATTATGAACGGTGCAGGAAAAATTGTAACAT | 9.08 ± 0.47 |
| AAACATAAGGGACACACACACATATATATATATATA [CACACA_site5920] | 10.2 ± 0.27 |
| CAAAAAAACAAACACACACACACACCGATATATATA [CACACA_site9218] | 10.1 ± 0.23 |
| TGAAGTGCAAAATACTGTACGTAATGTGCTTGTTAC [XGTACX_site4512] | 8.96 ± 0.46 |

| Sequence | gcPBM binding intensity (ln) |
| --- | --- |
| AAAAAAAAATGTCATGGTACACAATTTTTTCTTTTT [XGTACX_site4505] | 8.48 ± 0.47 |
| TAAAGTAAAACAAGGTAAGGTTTTTCTTTTTCTTTT [CACACA_negctrl_site1271] | 8.4 ± 0.5 |
| ACATATAGAAGTATCTATAAACAGTGATAGCATTTT [CACACA_negctrl_site1122] | 8.81 ± 0.53 |
| AAAAAGAATAAATAAATATAAATAAATAAATATATA [GTGCAC_negctrl_site336] | 8.56 ± 0.54 |
| CAATCTTTTACGAATACACACACATAAAGAAAAAAA [CACACA_site8367] | 9.17 ± 0.37 |
| TTAAATAAATAAAAATGTACATGCATATATAAATAT [XGTACX_site8908] | 8.9 ± 0.41 |
| AATTTTTTATATGTCACACATTTGTTATTATTATTA [CACACA_site4197] | 8.89 ± 0.42 |
| ATAAAAATGTATATATGTACATATATATATATATAT [XGTACX_site1505] | 9.76 ± 0.3 |
| TTTTTTTTTTTTAATACACACATATATATATTTATT [CACACA_site3994] | 8.85 ± 0.44 |
| GTAAAAAAAAAAAAATGTACACATATATATAATATA [XGTACX_site159] | 8.62 ± 0.56 |
| AACATAATTAAAAATTGTACAGAATTTCAATCGAAA [XGTACX_site7542] | 8.56 ± 0.59 |
| GGGAAAGAACCATATACATGCATATTTACCGTTAAA [TGCATGCA_site519] | 8.85 ± 0.35 |
| CATATACATACACATACACACATACAGACATACACA [CACACA_site6919] | 9.63 ± 0.2 |
| TGAAATTTTATTAATGTGCACATATATTTATTGTTC | 8.94 ± 0.4 |
| CTTTTTAATTAATACACACACACACCCATATATATA [CACACA_site2292] | 9.86 ± 0.37 |
| ATCACTTGAGAATAATTACATTAATATATATTTATG [TGCATGCA_negctrl_site581] | 8.53 ± 0.45 |
| ATATTATCCCTATTTGCACACAAGAGTAATTTTTTA [CACACA_site3908] | 9.04 ± 0.4 |
| TTTCTTTCTATTGTTATATTTATAATAATTATAATT [XGTACX_negctrl_site215] | 8.6 ± 0.57 |
| TGTTTAAGTGTTTTTAGTACTTATAAAAATATTATC [XGTACX_site7379] | 8.38 ± 0.5 |
| TATAAAATTACATTTTGTCATTTATTTTTTCCCACT [TGCATGCA_negctrl_site110] | 8.54 ± 0.63 |
| TTATTATATATAAGTAGTACAAACAATTAAGAGATA [XGTACX_site4009] | 8.82 ± 0.45 |
| TGATGATATAAAAACACACACATATAACATAATACT [CACACA_site6687] | 9.49 ± 0.33 |

— the supplement of paper PMC11417369
